According to the supplement of paper PMC5919970:
Where a name gives a salt, the structure may show the parent alone. Over roughly 2,000 compounds, “fractional viability relative to vehicle” has its median near 0.91; the lowest 2% begin near 0.045. The list shows a part of the results.

System: TYKNU
Experiment: fractional viability relative to vehicle; TYKNU is a high-grade serous ovarian cancer line; higher = less growth inhibition
Details: 72 h
Procedure, shortened: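 Drug treatment lasted 72 h, with cells grown at 37 °C in 5% CO2 in RPMI 1640 supplemented with 10% FBS. Beforehand, TYKNU control cells or their lentiCRISPRv2 knockout derivatives had been seeded at 500 cells per well into drug-stamped 384-well plates carrying a ~2100-compound library at 2 or 10 μM, in duplicate. Viability came from Cell Titer Glo luminescence, with averaged duplicate treatment wells normalised to duplicate control wells in the same plate position.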

[1] = 2uM, genotype: DNM1L knockout (sgDNM1L #1)
[2] = 2uM, genotype: sgCTRLA1 (non-targeting control)
[3] = 10uM, genotype: DNM1L knockout (sgDNM1L #1)
[4] = 10uM, genotype: sgCTRLA1 (non-targeting control)

SMILES | fractional viability [1] | fractional viability [2] | fractional viability [3] | fractional viability [4]
O=C(NC1CCOCC1)c1ccc(-c2cc(-c3c[nH]nc3-c3ccccn3)ccn2)cc1 | 1.38 | 1.21 | 1.17 | 1.04
COc1cc(/C=C/C(=O)O)ccc1O [Ferulic Acid] | 1.06 | 1.07 | 0.875 | 1.08
C[N+]1(C)CCC(=C(c2ccccc2)c2ccccc2)CC1 [Diphemanil Methylsulfate] | 1.2 | 1.1 | 0.784 | 0.943
O=c1[nH]c(=O)n([C@H]2C[C@H](O)[C@@H](CO)O2)cc1F [Floxuridine] | 0.828 | 0.971 | 0.535 | 0.428
C/C(=N\NC(=S)N1CCC1)c1ccccn1 | 0.171 | 0.137 | 0.225 | 0.167
COc1cc(C)c(/C=C/C(C)=C/C=C/C(C)=C/C(=O)O)c(C)c1C [Acitretin] | 0.966 | 1.16 | 0.811 | 1
C[C@@H]1COCCN1c1cc(C2([S@](C)(=N)=O)CC2)nc(-c2cc[nH]c3nccc2-3)n1 | 0.189 | 0.127 | 0.136 | 0.0834
CC(C)(F)C[C@H](N[C@@H](c1ccc(-c2ccc(S(C)(=O)=O)cc2)cc1)C(F)(F)F)C(=O)NC1(C#N)CC1 [Odanacatib (MK-0822)] | 1.09 | 1.09 | 1.02 | 0.997
CC(C)C[C@@H](C=O)NC(=O)[C@H](CC(C)C)NC(=O)[C@H](CC(C)C)NC(=O)OCc1ccccc1 | 0.0732 | 0.0639 | 0.0706 | 0.0779
COC1=CC(c2cc3ccccc3[nH]2)=N/C1=C\c1[nH]c(C)cc1C [Obatoclax Mesylate (GX15-070)] | 0.16 | 0.159 | 0.1 | 0.0774
N=C(N)NC(=N)N1CCOCC1 [Moroxydine HCl] | 0.969 | 1.12 | 0.888 | 1.12
CC(C)(C#N)c1ccc(N2C(=O)OCc3cnc4ccc(-c5cnc6ccccc6c5)cc4c32)cc1 | 0.66 | 0.59 | 0.252 | 0.16
CC(=O)Oc1cccc2c1C(=O)c1c(OC(C)=O)cc(C(=O)O)cc1C2=O [Diacerein] | 0.843 | 1.16 | 0.914 | 1.12
CCN(CC)Cc1ccc2cc(COC(=O)Nc3ccc(C(=O)NO)cc3)ccc2c1 [Givinostat (ITF2357)] | 0.523 | 0.131 | 1.04 | 0.0654
COc1ccc(NS(=O)(=O)c2ccc(N)cc2)nn1 [Sulfamethoxypyridazine] | 0.833 | 1.24 | 0.809 | 1.05
Nc1ccc(C(=O)NCC(=O)O)cc1 [4-Aminohippuric Acid] | 0.943 | 1.08 | 0.815 | 1.09
CCCC(=O)O[C@]1(C(=O)COC(C)=O)CC[C@H]2[C@@H]3C[C@H](F)C4=CC(=O)C=C[C@]4(C)[C@@]3(F)[C@@H](O)C[C@@]21C [Difluprednate] | 1.2 | 1.09 | 0.679 | 1.05
O=C(c1ccc(C(=O)N2CCC(N3CCCC3)CC2)c(Nc2ccccc2)c1)N1CCC(N2CCCC2)CC1 | 0.857 | 1 | 0.708 | 0.973

SMILES | fractional viability [1] | fractional viability [2] | fractional viability [3] | fractional viability [4]
OC[C@H]1O[C@@H](Oc2ccc(O)cc2)[C@H](O)[C@@H](O)[C@@H]1O [Arbutin] | 1.09 | 1.02 | 1.06 | 1.07
NC(=O)c1cnc2[nH]ccc2c1N[C@@H]1[C@@H]2CC3C[C@H]1C[C@@](O)(C3)C2 | 0.909 | 0.934 | 0.701 | 0.589
CCN1CCN(C(=O)N[C@@H](C(=O)N[C@@H]2C(=O)N3[C@@H]2SC(C)(C)[C@@H]3C(=O)O)c2ccccc2)C(=O)C1=O [Piperacillin Sodium] | 0.777 | 1.04 | 0.757 | 1
CN(NC(=O)CC(=O)NN(C)C(=S)c1ccccc1)C(=S)c1ccccc1 [Elesclomol (STA-4783)] | 0.0609 | 0.0221 | 0.0751 | 0.0222
CO[C@@H]1[C@@H](OC(N)=O)[C@@H](O)[C@H](Oc2ccc3c(O)c(NC(=O)c4ccc(O)c(CC=C(C)C)c4)c(=O)oc3c2C)OC1(C)C [Novobiocin Sodium] | 0.882 | 1.17 | 0.895 | 1.19
CC(=O)OCOC(=O)CN(CC(=O)OCOC(C)=O)c1ccccc1OCCOc1ccccc1N(CC(=O)OCOC(C)=O)CC(=O)OCOC(C)=O | 0.391 | 0.569 | 0.0416 | 0.0639
NC(=O)N/N=C/c1ccc([N+](=O)[O-])o1 [Nitrofural] | 1.34 | 1.13 | 1.26 | 1.2
O=C(O[C@H]1CN2CCC1CC2)N1CCc2ccccc2[C@@H]1c1ccccc1 [Solifenacin succinate] | 1.19 | 1.07 | 0.755 | 1.03
O=S(=O)(c1ccccc1)c1cnc2c(N3CCNCC3)cccc2c1 | 1.13 | 1.14 | 0.776 | 1.09
CC(C)C[C@H](NC(=O)[C@H](CCc1ccccc1)NC(=O)CN1CCOCC1)C(=O)N[C@@H](Cc1ccccc1)C(=O)N[C@@H](CC(C)C)C(=O)[C@@]1(C)CO1 [Carfilzomib (PR-171)] | 0.0773 | 0.0587 | 0.0559 | 0.057
CCCC(=O)Nc1ncnc2c1ncn2[C@@H]1O[C@@H]2COP(=O)(O)O[C@H]2[C@H]1OC(=O)CCC [Dibutyryl-cAMP (Bucladesine)] | 0.722 | 0.883 | 0.811 | 0.769
CN(C)CCC[C@@]1(c2ccc(F)cc2)OCc2cc(C#N)ccc21 [Escitalopram Oxalate] | 0.968 | 1.16 | 0.756 | 1.05
CC1=CC(=O)NS(=O)(=O)O1 [Acesulfame Potassium] | 1.16 | 1.13 | 0.791 | 1.17
CN1CCCC(n2nc(Cc3ccc(Cl)cc3)c3ccccc3c2=O)CC1 (centres undefined) [Azelastine HCl] | 0.953 | 0.941 | 0.594 | 0.543
COc1ccc(COc2ccc(Cc3cnc(N)nc3N)cc2OC)cc1 | 0.783 | 0.983 | 0.675 | 0.625
Cc1cc([N+](=O)[O-])ccc1NS(=O)(=O)c1cc(Cl)ccc1Cl | 0.83 | 0.925 | 0.601 | 0.59
O=C(O)CCNc1cc(N2CCc3ccccc3CC2)nc(-c2ccccn2)n1 | 0.937 | 1.07 | 0.854 | 0.738
O=C(N/N=C/c1ccc(O)c(O)c1)c1cc2ccccc2cc1O [Dynasore] | 0.705 | 0.953 | 0.588 | 0.552
